Experimental data reported in the RNAGym collection of RNA variant scans (doi:10.1073/pnas.2313332121).
Variants at the background level are over-represented here.

B1: TPR 5TU (parent)
chain: GGAUCUUCUCGAUCUAACAAAAAAGACAAAUCUGCCACAAAGCUUGAGAGCAUCUUCGGAUGCAGAGGCGGCAGCCUUCGGUGGCGCGAUAGCGCCAACGUUCUCAACUAUGACACGCAAAACGCGUGCUCCGUUGAAUGGAGUUUAUCAUG

Variants of: B1
Assay: polymerase ribozyme fitness, log enrichment relative to wild type (log ratio); higher = more active; in vitro selection for triplet polymerase activity
Method in brief: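 Both subunits of a heterodimeric triplet polymerase ribozyme were given their own mutant library, built by PCR and transcribed. Each library was annealed with a biotinylated primer, the partner subunit and triplets, incubated frozen at −7 °C, and its extended constructs gel-excised, captured on streptavidin beads and amplified by RT-PCR, all in one round done in triplicate. Fitness is the logarithm of genotype enrichment relative to wild-type enrichment, with replicates averaged by inverse-variance weighting. That logarithm is base 2, and Illumina-sequenced genotypes needed ≥10 input reads and ≥1 read per output.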

| Variant | polymerase ribozyme fitness (log ratio) |
| --- | --- |
| GGAUCUUCUCGCUCUAACAAAAAAGACAAAUCUGCCACAAAGCUUGAGACCAUCUUCGGAUGCAGCGGCGGCAGCCUUGGGUGGCGCGAUAGUGUCAACGUUCUCAACUAUGACACGCAAAACGCGUGCUCCGUUGAACGGAGUUUUUCAUG [A12C G50C A66C C79G C93U C95U U139C A147U] | ≤ -4.2 |
| GGAUCUUCUCGGUCUAACACAAAAGACAAAUCUGCCACCAAGCUUGAGAGCAUCUUCGGAUGCAGGGGCGGCCGCCUUCGGUGUCGCGAUAGCGCCAACGUUCUCAACUAUGACACGCAAAACGCGUGCUCAGUUUAAUGGAGUUUAUCAUG [A12G A20C A39C A66G A73C G84U C132A G136U] | ≤ -4.2 |
| GGAUCUUCUCGCUCUAACAAAAAAGACAAAUCUGCCACAAAGCUUGAGAGCAUCUUUGGAUGCCGAGGCGGCAGCCUUCGGGGGCGCGAUAGCGCUAUCGGUCUCAACUAUGACACGCAAAACGCGUGCUCCGUUGAAUGGAGUUUAUCAUG [A12C C57U A64C U82G C96U A98U U101G] | ≤ -4.2 |
| GGAUCUUCUCGGUCUAACAAAACAGACAAGUCUGCCACAAAGCUUGAGAGCAUCUUCGGAUGCAGAGGCGGCAGCCUUCGGUGGCGCGAUAGCGACAAUGUUCUCAACUAUGACACGCAAAACGCGUGCUGAGUUGAAUGGAGUUUAUCAUG [A12G A23C A30G C95A C99U C131G C132A] | ≤ -4.2 |
| GGAUCUUCUCGGUCUAACAGAAAAGACAAAUCUGCCACAAAGCUUGAGAGCAUCUUCGGGUGCAGAGGCGGCAGCCUUCGGUGGCGCGAUAGCGCCAACGUUCUCAACUAUGACACGCAAAACGCGUGCUCCGUUGAAUGGAGUUUAUCAUG [A12G A20G A60G] | -0.113 |
| GGAUCUUCUCGCUCUAACAAAAAAGACAAAUCUGCCACAAAGCUUGAGAGCAUCUUCGGAUGCAGAGGCGGAAGCCUUCGGUGGCGCGAUAGCGCGAACGUUAUCAACAAUGUCACGCAAAUCGGGUGCUCCGUCGAAUGGAGUUUAUCAUG [A12C C72A C96G C103A U109A A113U A122U C125G U135C] | ≤ -4.2 |
| GGAUCUUCUCGCUCUAACAAAAAAGACAAAUCUGCCACAAAGCUUGAGAGCAUCUUCGGAUGCAGAGGCGGCAGCCUUCGGUGGCGUGAUAGCGCCAACGUUCUCAACUAUGAUACGCAAAACGCGUGCUCCGUUGAAGGGAGUUUAUCAUG [A12C C87U C114U U139G] | -3.08 |
| GGAUCUUCUCGGUCUAACAUAAAAGACAUAUCUGCCACAAAGCUUGAGAGCAGCUUCGGAUGCAGCGGCGGCAGCCUUCGGUGGCGCGAUAGCGCCAACGUUCUCAACUAUGACACGCAAAACGCGUGCUCCGUUGAAUGGAGUUUAUCAUG [A12G A20U A29U U53G A66C] | -4.16 |
| GGAUCUUCUCGGUCUAACAAAUAAGACAAAUCGGCCACAAUGCUGGAGAGCAUCUUCGGAUGCAGAGGCGGCAGCCUUCGGUGGAGCGAUUGCGCAAACGUUCUCAACUAUGACGCGCAAAACGCGUGCUCCGUUGAUUGGAGUUUAUCAUG [A12G A22U U33G A41U U45G C85A A91U C96A A115G A138U] | ≤ -4.2 |
| GGAUCUUCUCGGUCUAGCGAAAAAGACAAAUCUGCCACAAAGCUUGAGAGCAACAUCGGAUGCAGAGGCGGCAGCCUUCGUUGUCGCGAUAGCGCCAACGUUCUCAACUAUGACACUCAAAACGCGUGCUCCGUUGAAUGGAGUUUAUCAUG [A12G A17G A19G U53A U55A G81U G84U G117U] | -4.04 |
| GGAUCUUCUCGCUCUAACAAAAAAGACAAAUCUGCCACAAAGCUUGAGAGCAUCAUCGGAUGCAGAGGCGGCAGCCUUCGGUGGCGCGAUGGCGCCAACGUUCUCAACUUUGACACGCAAAACGCGUGCUCCGUUGAAUGGAGUUUAUCAUG [A12C U55A A91G A110U] | ≤ -4.2 |
| GGAUCUUCUCGGUCUAACAAAAAAGCCAAAUCUGUCACAAAGCUUGAGAGCAUCUUCGGAUGCAGAGGCGGCAGCCUUCGGUGGCGAGAUAGUGCCAACGUUCUCAACUAUGACACGCAAAACGCGUGCUCCGUUGACUGAAGUUUAUCAUG [A12G A26C C35U C87A C93U A138C G141A] | ≤ -4.2 |
| GGAUCUUCUCGGUCUAACAAAAAAGACAUAACUGCCACAAAGCUUGAGAGCAUCUUCGGAUGCAGAUGCGGAAGCCUUCGGUGGCGCGAUAUCGCCAACGUUCUCAACUAUGACACGCAAAACGCGUGCUCCGUUGGAUGGAGUUUAUCAUG [A12G A29U U31A G67U C72A G92U A137G] | ≤ -4.2 |
| GGAUCUUCUCGCCCUAACAAAAAAGACAAUUCUGCCACAAAGCUUGAGAGCAUCUUCGGCUGCAGAGGCGGCAGCCUUCGGUGGCGCGAUAGGGCCAACGUUCUCAACUAUGACACGCAAAACGCGUGCUCCGUUGAAUUGAGUUUAUCAUG [A12C U13C A30U A60C C93G G140U] | ≤ -4.2 |
| GGAUCUUCUCGCUCUAACAAAAAAGACAAAUCUGCCACAAAGCUUGAGACCAUCUUCGGAUGCAAAGGCGGCAGCGUUCGGUUGCGCGAUAGCGCCAACGUUCUCAACUAUGACACGCAAAACGCGUGCUCCGUUGAAUGGAGUUUAUCAUG [A12C G50C G65A C76G G83U] | ≤ -4.2 |
| GGAUCUUCUCGGUCUAACAAAAAAGACAAAUCUGCCACAAAGCUUGAGAGCAUCUUCGGAUGCAGAGGCGGCAGCCUUCGGUGGCGCGAUAGCGCCAACGUUCUCAACUAUGACACGCAAAACGCGUGCUCCGUUGAAUGGAGUUUAUCAUG [A12G] | 0.116 |
| GGAUCUUCUCGCUCUAACAAAAAAGACAAAUCUGCCACAAAGCUUGAGAGCAUCUUCUGAUGCAGAGGCGGCAGCCUGCGGUGGCGCGAUAGCGCUAACGUUCUUAACUAUGACACGCAAAACGCGUACUCCGUUGAAUGGAGUUAAUCAUG [A12C G58U U78G C96U C105U G128A U146A] | ≤ -4.2 |
| GGAUCUUCUCGCUCUAACAAAAAAGACAAAUCUGCCACAAAGCUUGAGAGCAUCUUCGGAUACAGAGGCGGCAGCCUUCGGUGGCGCGAUAGCGCCAACGUUCUCAACUAUGACACGCAAAUCGCGUGCUCCGUUGAAUGGAGUUUAUCAUG [A12C G62A A122U] | -0.923 |
| GGAUCUUCUCGGUCUAACAACAAAGACAAAUGUGCCACAAAGCUUGAGAUCAUCUUCGGAUGCAGAGGCGGCAGCCUUCGGUGGCGCGAUAGCGCCAACGUUCUCAACUAUGACACGCAAAACGGGUGCUCCGUUGAAUGGAGUUUAUCAUG [A12G A21C C32G G50U C125G] | ≤ -4.2 |
